In PubChem BioAssay AID1671194 (National Center for Advancing Translational Sciences (NCATS), 2021):
Among all 140,000 compounds or so, about 240 (0.17%) were called active. Inconclusive means that the source gave no clear call. Such entries were picked first, then a sample of the others. Calls come from the whole dose curve; as a rule, active = well fitted inhibition curve with a large enough effect; inconclusive = small, poorly fitted or top-dose-only effect; inactive = no such curve, though single readings can be large or run the other way. A potency beside an inconclusive call is a rough fit, not a confirmed value.

Experiment: Primary qHTS assay for inhibitors of alpha-synuclein gene (SNCA) expression; note: nearly all actives have a fitted effect of over 45% in size
Settings: HEK-293 SNCA-luciferase knock-in, luminescence, 24 h; series mostly up to 57.2 µM
Potency is the fitted concentration of half-maximal effect; tags give direction and shape of the fitted curve.

Row | Structure (SMILES) | Potency
1 | Cn1cnc(C(=O)N2CCC(Cc3ccc(COc4cccc(F)c4)cc3)CC2)c1 | inconclusive: 25.1 µM [inhibitor, single point]
2 | COc1cccc(CCC(=O)N2CCC(Cc3nc(-c4ccc(F)cc4)no3)CC2)c1 | inactive
3 | CCOc1ccccc1CNC(=O)C1CCN(C(=O)N2CC(CC)Oc3ccc(C)cc32)CC1 (configuration not stated) | inconclusive: 39.8 µM [inhibitor, single point]
4 | Cc1ncsc1CN1CCCN(S(=O)(=O)c2ccccc2)CCC(=O)NCC1 | inconclusive: 7.94 µM [inhibitor, full curve]
5 | CC(=O)Nc1cccc(-n2c(=O)n(C3CC3)c(=O)c3c(Nc4ccc(I)cc4F)n(C)c(=O)c(C)c32)c1 | inconclusive: 42.9 µM [inhibitor, single point]
6 | CC(C)N1CCC2(CC1)CN(C(=O)c1cnccn1)Cc1ccccc1O2 | inconclusive: 12.6 µM [inhibitor, partial curve]
7 | O[C@@H]1CC(CNC2CCC2)(COc2ccc(C(F)(F)F)cn2)C[C@@H]1O (some centres not stated) | inconclusive: 5.01 µM [inhibitor, partial curve, poor fit]
8 | CCNc1cc(N2CCC(CCC(=O)N3CCN(c4cccc(OC)c4)CC3)CC2)ncn1 | inconclusive: 25.1 µM [inhibitor, single point]
9 | CCN1CCN(C(=O)c2ccc3nnc(-c4ccccc4OC)n3c2)CC1 | inactive
10 | CN(C)Cc1nnc(C2CC(NC(=O)c3ccc4c(c3)CCCO4)C2)n1C (configuration not stated) | inconclusive: 4.47 µM [inhibitor, partial curve]
11 | COc1ccc(C(=O)N2CCC(n3c(C)cnc3-c3ccncc3)C2)c(OC)c1 (configuration not stated) | inactive
12 | N#Cc1ccccc1Cn1c(=O)n(CCCC(=O)NCc2ccc3c(c2)OCO3)c(=O)c2sccc21 | inconclusive: 39.8 µM [inhibitor, single point]
13 | Cc1ccccc1C(=O)N1CCC2(CC1)CCN(Cc1cccs1)c1ccccc1O2 | inactive
14 | CCCC(C(=O)NCc1cccc(Cl)c1)N1Cc2ccccc2C1=O (configuration not stated) | inconclusive: 5.01 µM [inhibitor, single point]
15 | CCOc1ccccc1NC(=O)N1CCC2(CCC2NC(=O)COC)CC1 (configuration not stated) | inactive
16 | CCc1nnc(SCC(=O)Nc2ccccc2Cl)nc1CC | inconclusive: 0.891 µM [inhibitor, full curve]
17 | Cn1ccc(NC(=O)c2ccc3c(c2)NC(C)(COc2ccccc2)CO3)n1 (configuration not stated) | inactive
18 | N#Cc1cccc(-c2ccnc(N[C@H]3CO[C@H]4[C@@H]3OC[C@@H]4NC(=O)c3ccccc3)n2)c1 | inconclusive: 56.2 µM [inhibitor, single point]
19 | O=S(=O)(NCCc1nnc2ccc(SCc3ccc(C(F)(F)F)cc3)nn12)c1ccccc1 | inconclusive: 6.31 µM [inhibitor, single point]
20 | O=C(Nc1cccc(-c2ccc(F)cc2)c1)C1CCCN1C(=O)C1CCOCC1 (configuration not stated) | inactive
21 | COC1CCN(c2cc(-c3cccc(C(F)(F)F)c3)nc3c(C)noc23)CC1 | inconclusive: 25.1 µM [inhibitor, partial curve, poor fit]

Row | Structure (SMILES) | Potency
22 | COc1ccc(-c2nc(C3CC(=O)N(Cc4ccccc4OC)C3)no2)c(C)c1 (configuration not stated) | inactive
23 | CS(=O)(=O)N1CCOc2ccc(CCC(=O)NCC3CCCO3)cc2C1 (configuration not stated) | inconclusive: 5.62 µM [inhibitor, single point]
24 | COc1ccc(-c2onc(C)c2C(=O)N2CCC(Cc3ccc(F)cc3)CC2)cc1 | inconclusive: 2.82 µM [inhibitor, full curve, poor fit]
25 | CN(CCCN1CCCCCC1)c1nc(-c2ccncc2)nc2c1cnn2C | inconclusive: 5.62 µM [inhibitor, partial curve, poor fit]
26 | COc1ccc(NC(=O)CSc2nnc(-c3ccc(OC)cc3)s2)cc1 | inconclusive: 39.8 µM [inhibitor, single point]
27 | COc1cccc(CCC(=O)N(C)C2CCc3nn(CC4CC4)c(=O)n3CC2)c1 (configuration not stated) | inactive
28 | OC[C@@H]1CNC[C@H]1C1CCN(Cc2cccc(C(F)(F)F)c2)CC1 | inconclusive: 39.8 µM [inhibitor, single point]
29 | CCOC(=O)c1ccccc1NC(=O)c1cc2c(s1)-c1c(C)cccc1OC2 | inactive
30 | O=C(Nc1cccc(C(F)(F)F)c1)N[C@H]1[C@H](O)[C@@H](N2CCN(c3ccccc3)CC2)[C@@H]2OC[C@H]1O2 | inconclusive: 0.708 µM [inhibitor, single point]
31 | O=C(Nc1ccccc1)c1nc2c(o1)CCN(Cc1ccc(F)c(Cl)c1)CC2 | inactive
32 | CCCN1C(=O)Cc2cc(C(=O)NCc3ccc(C)c(C)c3)ccc21 | inactive
33 | CC(C)(C)c1cnc(CSc2cnc(NC(=O)C3CCNCC3)s2)o1 | active: 1.52 µM
34 | COc1cccc(NC(=O)Cc2c[nH]c3ncc(-c4cccnc4OC)cc23)c1 | inactive
35 | CC(=O)Nc1ccc(S(=O)(=O)N[C@H]2CO[C@H]3[C@@H]2OC[C@@H]3Nc2nccc(-c3cccc(F)c3)n2)cc1 | inconclusive: 12.6 µM [inhibitor, partial curve]
36 | CCC1C(=O)NCCN1Cc1cn(-c2cccc(F)c2)nc1-c1ccc(C)o1 (configuration not stated) | inactive
37 | O=C(NC1CCN(c2ccnc3ccnn23)C1)c1cncc(Br)c1 (configuration not stated) | inconclusive: 39.8 µM [inhibitor, single point]
38 | COc1ccc(CN2C[C@H]3CN(Cc4ccccc4)CCN3C2=O)cc1 | inconclusive: 56.2 µM [inhibitor, single point]
39 | CC(C)OCCCNc1sc(S(=O)(=O)c2ccccc2)nc1S(=O)(=O)c1ccc(Cl)cc1 | inconclusive: 10 µM [inhibitor, partial curve, poor fit]
40 | O=C(NCc1cccc(C(F)(F)F)c1)c1ccc2nnc(C3CCCC3)n2c1 | inactive
41 | CCN(CC)C(=O)C[C@@H]1c2nc(NC(=O)c3ccc(OC)cc3)sc2C[C@@H]2[C@](C)(CO)[C@H](O)CC[C@]21C | inconclusive: 8.91 µM [inhibitor, single point]
42 | C=CCN(Cc1cccc(OCC(N)=O)c1)Cc1ccccc1C | inconclusive: 39.8 µM [inhibitor, single point]
